# Laboratory results as given in patent publication US20230272105A1 (Genmab, published 2023).
# B1: IgG1-C (antibody)
# heavy: QVQLVQSGAEVKKPGSSVKVSCKAFGGTFSSYAISWVRQAPGQGLEWMGRIIRFLGIANYAQKFQGRVTLIADKSTNTAYMELSSLRSEDTAVYYCAGEPGERDPDAVDIWGQGTMVTVSSASTKGPSVFPLAPSSKSTSGGTAALGCLVKDYFPEPVTVSWNSGALTSGVHTFPAVLQSSGLYSLSSVVTVPSSSLGTQTYICNVNHKPSNTKVDKRV[human IgG1 Fc not written out]
# light: [about 200 residues not written out]
# notes: Human IgG1m(f), kappa, expressed in Expi293F cells; also called CD38 antibody C; CD38 Ab C
# B2: IgG1-C-E430G (antibody)
# heavy: QVQLVQSGAEVKKPGSSVKVSCKAFGGTFSSYAISWVRQAPGQGLEWMGRIIRFLGIANYAQKFQGRVTLIADKSTNTAYMELSSLRSEDTAVYYCAGEPGERDPDAVDIWGQGTMVTVSSASTKGPSVFPLAPSSKSTSGGTAALGCLVKDYFPEPVTVSWNSGALTSGVHTFPAVLQSSGLYSLSSVVTVPSSSLGTQTYICNVNHKPSNTKVDKRV[human IgG1 Fc with E430G (EU numbers) not written out]
# light: [about 200 residues with changes not written out]
# notes: also called E430G mutated C
# B3: IgG1-C-E430G with a CH comprising SEQ ID NO:46, expressed in CHO cells (formulated, Batch no. A and Batch no. B) (antibody)
# heavy: B2 heavy
# light: [about 200 residues with changes not written out]
# notes: Formulated at 20 mg/mL in 20 mM histidine, 250 mM sorbitol, 0.04% PS80, pH 6.0; also called HexaBody-CD38
# What was measured:
# [1] = target: T1, Human CD38 expressed on the cell surface (human, UniProt P28907 1-300); experiment: cell-based or functional assay
# [2] = target: T2, recombinant his-tagged extracellular domain of CD38 (hisCD38) (human, UniProt P28907 45-300); experiment: BLI (Octet HTX), antibody on anti-human IgG Fc capture sensors, His-CD38 0.78-50 nM, 1:1 model; experiment 2
# T2 construct: also called His-tagged soluble human CD38
# [3] = target: T2, recombinant his-tagged extracellular …; experiment: BLI (Octet HTX), antibody on anti-human IgG Fc capture sensors, His-CD38 0.78-50 nM, 1:1 model; average of three experiments
# [4] = target: T2, recombinant his-tagged extracellular …; experiment: BLI (Octet HTX), antibody on anti-human IgG Fc capture sensors, His-CD38 0.78-50 nM, 1:1 model; experiment 1
# [5] = target: T2, recombinant his-tagged extracellular …; experiment: BLI (Octet HTX), antibody on anti-human IgG Fc capture sensors, His-CD38 0.78-50 nM, 1:1 model; experiment 3
# [6] = target: T1, Human CD38 expressed on the cell surface; experiment: cell-based or functional assay; remark: listed apart in the source
# [7] = target: T2, recombinant his-tagged extracellular …; experiment: ligand binding ELISA on coated HIS-CD38; Batch A, 5±3°C inverted, 6 months
# [8] = target: T2, recombinant his-tagged extracellular …; experiment: ligand binding ELISA on coated HIS-CD38; Batch B, ≤ -65°C, 1 month
# [9] = target: T2, recombinant his-tagged extracellular …; experiment: ligand binding ELISA on coated HIS-CD38; Batch B, 5±3°C, 3 months
# [10] = target: T2, recombinant his-tagged extracellular …; experiment: ligand binding ELISA on coated HIS-CD38; Batch B, 25±2°C/60±5% RH, 3 months
# [11] = target: T2, recombinant his-tagged extracellular …; experiment: ligand binding ELISA on coated HIS-CD38; Batch A, 5±3°C upright, 6 months
# [12] = target: T2, recombinant his-tagged extracellular …; experiment: ligand binding ELISA on coated HIS-CD38; Batch B, ≤ -65°C, 0 months
# [13] = target: T2, recombinant his-tagged extracellular …; experiment: ligand binding ELISA on coated HIS-CD38; Batch A, 25±2°C/60±5% RH, 0 months
# [14] = target: T2, recombinant his-tagged extracellular …; experiment: ligand binding ELISA on coated HIS-CD38; Batch B, 5±3°C, 0 months
# [15] = target: T2, recombinant his-tagged extracellular …; experiment: ligand binding ELISA on coated HIS-CD38; Batch A, 25±2°C/60±5% RH, 6 months
# [16] = target: T2, recombinant his-tagged extracellular …; experiment: ligand binding ELISA on coated HIS-CD38; Batch B, ≤ -65°C, 2 months
# [17] = target: T2, recombinant his-tagged extracellular …; experiment: ligand binding ELISA on coated HIS-CD38; Batch B, 5±3°C, 1 month
# [18] = target: T2, recombinant his-tagged extracellular …; experiment: ligand binding ELISA on coated HIS-CD38; Batch B, 25±2°C/60±5% RH, 2 months
# [19] = target: T2, recombinant his-tagged extracellular …; experiment: ligand binding ELISA on coated HIS-CD38; Batch B, 5±3°C, 2 months
# [20] = target: T2, recombinant his-tagged extracellular …; experiment: ligand binding ELISA on coated HIS-CD38; Batch A, 25±2°C/60±5% RH, 2 months
# [21] = target: T2, recombinant his-tagged extracellular …; experiment: ligand binding ELISA on coated HIS-CD38; Batch A, 25±2°C/60±5% RH, 3 months
# [22] = target: T2, recombinant his-tagged extracellular …; experiment: ligand binding ELISA on coated HIS-CD38; Batch B, 25±2°C/60±5% RH, 1 month
# [23] = target: T2, recombinant his-tagged extracellular …; experiment: ligand binding ELISA on coated HIS-CD38; Batch B, 25±2°C/60±5% RH, 0 months
# [24] = target: T2, recombinant his-tagged extracellular …; experiment: ligand binding ELISA on coated HIS-CD38; Batch A, 5±3°C inverted, 0 months
# [25] = target: T2, recombinant his-tagged extracellular …; experiment: ligand binding ELISA on coated HIS-CD38; Batch A, 5±3°C upright, 3 months
# [26] = target: T2, recombinant his-tagged extracellular …; experiment: ligand binding ELISA on coated HIS-CD38; Batch B, ≤ -65°C, 3 months
# [27] = target: T2, recombinant his-tagged extracellular …; experiment: ligand binding ELISA on coated HIS-CD38; Batch A, 5±3°C inverted, 3 months
binder,measurement,setting,value
B1,CDC percent lysis of Ramos and Daudi cells,[1],~50%
B2,Kd,[2],0.95 nM
same,koff,[2],0.00041 s⁻¹
same,kon,[2],430000 M⁻¹ s⁻¹
same,Kd,[3],1.1 nM
same,koff,[3],0.00044 s⁻¹
same,kon,[3],410000 M⁻¹ s⁻¹
same,CDC percent lysis of Ramos and Daudi cells,[1],≤ 100%
same,Kd,[4],1 nM
same,koff,[4],0.0004 s⁻¹
same,kon,[4],380000 M⁻¹ s⁻¹
same,Kd,[5],1.3 nM
same,koff,[5],0.00052 s⁻¹
same,kon,[5],410000 M⁻¹ s⁻¹
same,"CDC EC50, 697 cells",[6],0.087 µg/mL
same,"CDC EC50, AML-193 cells",[6],0.032 µg/mL
same,"CDC EC50, DOHH2 cells",[6],0.115 µg/mL
same,"CDC EC50, Daudi cells",[6],0.03 µg/mL
same,"CDC EC50, HL-60 cells",[6],0.07 µg/mL
same,"CDC EC50, JVM-3 cells",[6],0.11 µg/mL
same,"CDC EC50, JVM-13 cells",[6],0.146 µg/mL
same,"CDC EC50, Jeko-1 cells",[6],0.108 µg/mL
same,"CDC EC50, KG-1 cells",[6],0.104 µg/mL
same,"CDC EC50, LP-1 cells",[6],0.02 µg/mL
same,"CDC EC50, MEGAL cells",[6],0.17 µg/mL
same,"CDC EC50, ML-2 cells",[6],0.023 µg/mL
same,"CDC EC50, MOLM-13 cells",[6],0.017 µg/mL
same,"CDC EC50, NALM-16 cells",[6],0.022 µg/mL
same,"CDC EC50, NCI-H929 cells",[6],0.308 µg/mL
same,"CDC EC50, Nomo-1 cells",[6],0.039 µg/mL
same,"CDC EC50, Oci-AML3 cells",[6],0.046 µg/mL
same,"CDC EC50, Oci-Ly18 cells",[6],0.057 µg/mL
same,"CDC EC50, Oci-Ly-7 cells",[6],0.012 µg/mL
same,"CDC EC50, Oci-Ly-19 cells",[6],0.031 µg/mL
same,"CDC EC50, REH cells",[6],0.039 µg/mL
same,"CDC EC50, RS4;11 cells",[6],0.093 µg/mL
same,"CDC EC50, Raji cells",[6],0.036 µg/mL
same,"CDC EC50, Ramos cells",[6],0.013 µg/mL
same,"CDC EC50, SU-DHL-4 cells",[6],0.073 µg/mL
same,"CDC EC50, THP-1 cells",[6],0.075 µg/mL
same,"CDC EC50, U266 cells",[6],0.052 µg/mL
same,"CDC EC50, U937 cells",[6],0.057 µg/mL
same,"CDC EC50, WSU-DLCL2 cells",[6],0.345 µg/mL
same,"CDC EC50, Wien133 cells",[6],0.015 µg/mL
same,"CDC EC50, Z-138 cells",[6],0.106 µg/mL
same,"CDC EC50, monomac6 cells",[6],0.093 µg/mL
B3,ELISA % relative to reference standard,[7],107%
same,ELISA % relative to reference standard,[8],103%
same,ELISA % relative to reference standard,[9],102%
same,Antigen binding % relative to reference standard,[10],110%
same,ELISA % relative to reference standard,[11],105%
same,ELISA % relative to reference standard,[12],93%
same,ELISA % relative to reference standard,[13],102%
same,ELISA % relative to reference standard,[14],93%
same,ELISA % relative to reference standard,[15],104%
same,ELISA % relative to reference standard,[16],113%
same,ELISA % relative to reference standard,[17],108%
same,Antigen binding % relative to reference standard,[18],112%
same,ELISA % relative to reference standard,[19],113%
same,ELISA % relative to reference standard,[20],107%
same,ELISA % relative to reference standard,[21],105%
same,Antigen binding % relative to reference standard,[22],106%
same,Antigen binding % relative to reference standard,[23],93%
same,ELISA % relative to reference standard,[24],102%
same,ELISA % relative to reference standard,[25],103%
same,ELISA % relative to reference standard,[26],99%
same,ELISA % relative to reference standard,[27],105%
